Results published in PubChem BioAssay AID686971 (National Center for Advancing Translational Sciences (NCATS), 2013).
Out of some 360,000 compounds screened, about 7,500 (2.1%) were called active. Inconclusive results, whose numbers are uncertain, are shown with a selection of clear calls. The call rests on the fitted dose curve; in most records, active means well fitted cell-killing curve with a large enough effect; inconclusive means small, poorly fitted or top-dose-only effect, or effect the other way, or another doubt; inactive means no such curve, though single readings can be large or run the other way. Potencies of inconclusive entries are left out as doubtful fits.

Assay: qHTS for induction of synthetic lethality in tumor cells producing 2HG: qHTS for the HT-1080-IDH1KD cell line;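 on activity, negative = toxicity: 0% = DMSO wells and -100% = cell-free medium wells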
Conditions: HT-1080 IDH1 knockdown viability, ATP luminescence, 48 h; activity, negative = toxicity: at 46.1 µM (top of the series) unless noted
Outline: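 Cytotoxicity counter-line: IDH1KD HT-1080, 48 h, CellTiter-Glo. Curves classed by r2, magnitude and activity.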
Potency means the concentration at half of the fitted maximal effect; tags describe the fitted curve by direction and shape.

Row | Compound | Potency | activity, negative = toxicity
1 | Cn1cnc([N+](=O)[O-])c1S(=O)(=O)c1cccc(Cl)c1 | inconclusive [cytotoxic, single point] | –
2 | CC(=O)NN1C(=O)/C(=C\c2ccc(Br)o2)SC1=S | inconclusive [cytotoxic, single point] | –
3 | Cc1cc(C(=O)OC(C(=O)Nc2cccc(C(F)(F)F)c2)c2ccccc2)c(C)o1 (stereo unspecified) | inconclusive [cytotoxic, single point] | –
4 | CCN(CC)S(=O)(=O)c1cccc(C(=O)N[C@H](C(=O)OCC(=O)NC(=O)NC)C(C)C)c1 | – | inactive: 6.65%
5 | Cc1ccc(S(=O)(=O)N2CCCCC2)cc1NC(=O)c1ccc(=O)[nH]c1 | – | inactive: 1.54%
6 | Cc1cccc(NC(=S)NCCO)c1C | – | inactive: 14.9%
7 | CCOc1cc(Br)c(COc2ccc(C)nc2[N+](=O)[O-])cc1OCC | – | inactive: -28.8%
8 | C=CCCC(=O)Nc1nc(C)c(-c2csc(Nc3cc(Cl)ccc3OC)n2)s1 | inconclusive [cytotoxic, single point] | –
9 | C=CCn1c(Sc2ncc([N+](=O)[O-])s2)n[nH]c1=O | active: 5.17 µM | –
10 | CN1C(=O)C2(OCC(COc3ccc(Cl)cc3)O2)c2ccccc21 (stereo unspecified) | inconclusive [cytotoxic, single point] | –
11 | CC(=O)c1c(C)[nH]c(C(=O)NC2CCSc3ccccc32)c1C (stereo unspecified) | inconclusive [cytotoxic, single point] | –
12 | Cc1cccn2c(=O)nc(SCC(=O)N3CCC(Cc4ccccc4)CC3)nc12 | – | inactive: 9.68%
13 | CCN(C(=O)Cc1ccc(Br)cc1)C1CCCCC1 | – | inactive: -1.33%
14 | C=CCn1c(N)c(C(=O)Nc2cccc(C)c2)c2nc3ccccc3nc21 | inconclusive [cytotoxic, single point] | –
15 | COc1ccc([N+](=O)[O-])c(S(=O)(=O)c2ccccc2)n1 | active: 13 µM | –
16 | COc1ccc(C(=O)OCC(=O)c2ccc(C3CCCCC3)cc2)cc1 | – | inactive: -8.46%
17 | COc1ccc(-c2c([C@H]3[C@H]4C=CC[C@@H](C)[C@@H]4C(=O)N3Cc3ccccc3)ccc3ccccc23)cc1OC | inconclusive [cytotoxic, single point] | –
18 | O=C(Nc1ccccc1)/C(=C\c1ccccc1)NC(=O)c1ccco1 | inconclusive [cytotoxic, single point] | –
19 | Cc1ccccc1NS(=O)(=O)c1ccc2c3c(cccc13)C(=O)N2C | – | inactive: -24.1%
20 | CC(C)CN(CC(C)C)CC(O)CN(c1ccccc1)S(=O)(=O)c1ccccc1[N+](=O)[O-] (stereo unspecified) | inconclusive [cytotoxic, single point] | –
21 | CC(=O)Nc1cccc(-c2ccnc3c2CC(C(=O)NCc2cccc(Cl)c2)O3)c1 (stereo unspecified) | inconclusive [cytotoxic, partial curve, poor fit] | –
22 | O=C1C2CCCN2C(=S)N1c1cc(Cl)ccc1Cl (stereo unspecified) | – | inactive: -15%
23 | COC(=O)c1ccc(NC(=S)N2CCN(Cc3ccccc3OC)CC2)cc1 | – | inactive: -12.4%
24 | COc1ccc(-n2nnc3c(=O)n(Cc4cccc(C)c4)cnc32)cc1 | – | inconclusive: 32.9%

Row | Compound | Potency | activity, negative = toxicity
25 | C#CCN(C[C@@H]1[C@@H](OC(=O)NCC2CCCCC2)[C@@H](OC(=O)NCC2CCCCC2)Cn2c(=O)ccc(=O)n21)S(=O)(=O)c1ccc(C)cc1 | active: 2.59 µM | –
26 | CN(C)c1ccc(/C=C2\SC(=S)N(Nc3ncc(C(F)(F)F)cc3Cl)C2=O)cc1 | inconclusive [cytotoxic, single point] | –
27 | O=C(CSC1=NCCN1)C1COc2ccccc2O1 (stereo unspecified) | inconclusive [cytotoxic, single point] | –
28 | O=C(CSc1ccc(Br)cc1)NCC(c1ccco1)N1CCCCC1 (stereo unspecified) | – | inactive: 0.0873%
29 | COc1ccccc1C(=O)NNC(=S)NC(=O)c1sc2ccccc2c1Cl | inconclusive [cytotoxic, single point] | –
30 | CCN(CC)CCSc1nc2ccccc2c(=S)n1-c1ccccc1 | inconclusive [cytotoxic, single point] | –
31 | OCC[C@@H]1C[C@@H](O)[C@H](O)[C@@]2(Cc3ccccc3O2)O1 | – | inactive: 12.7%
32 | C1=C(CCNc2ncnc3c2[nH]c2ccccc23)CCCC1 | active: 25.9 µM | –
33 | O=c1[nH]c(C2CCN(S(=O)(=O)c3cccc(C(F)(F)F)c3)CC2)nc2c1nnn2Cc1cccc(F)c1 | active: 20.6 µM | –
34 | COCCCN(Cc1cc(OC)c(OC)c(OC)c1)C(=S)Nc1cccc(SC)c1 | – | inactive: -20.2%
35 | CCN1CCCC1CNCC(O)COc1ccc(C(C)(C)C)cc1C (stereo unspecified) | inconclusive [cytotoxic, single point] | –
36 | Cc1ccc(C)c(NC(=O)CSc2nc(C)cc(C)c2C#N)c1 | – | inactive: -5.93% [at 9.24 µM]
37 | CC1(C)Cc2c(sc3ncnc(NNC(=S)NCc4ccccc4)c23)CO1 | active: 1.84 µM | –
38 | COc1ccc(C(CNC(=O)COc2ccccc2C)N2CCCCC2)cc1 (stereo unspecified) | – | inactive: 0.991%
39 | Brc1cccc(-c2nc3c4ccccc4ccn3c2Cc2ccsc2)c1 | – | inactive: -12.3%
40 | CC(C)OP(=O)(c1ccc(N(C)C)cc1)C(O)c1ccc(N(C)C)cc1 (stereo unspecified) | – | inactive: -1.84%
41 | Nc1nc(N)c(N=O)c(Nc2ccc(Cl)c(Cl)c2)n1 | inconclusive [cytotoxic, partial curve] | –
42 | Oc1ccc(Br)c(CN2CCN(c3ncc(Cc4ccccc4)cn3)CC2)c1 | inconclusive [cytotoxic, single point] | –
43 | Cc1cc(=O)n2nc(N3CCCC(C(=O)NCc4ccccc4Cl)C3)sc2n1 (stereo unspecified) | – | inactive: -1.37%
44 | O=C(CNC(=O)c1ccccc1F)N/N=C/c1cc(Br)ccc1OC(=O)/C=C/c1ccco1 | active: 4.61 µM | –
45 | O=[N+]([O-])c1ccc(NCCCN2CCOCC2)c(Cl)c1 | inconclusive [cytotoxic, single point] | –
46 | NS(=O)(=O)c1ccc(NC(=S)Nc2ccn(Cc3cccc4ccccc34)n2)cc1 | inconclusive [cytotoxic, single point] | –
47 | COc1cc2c(cc1C(F)(F)F)N(C(=O)Nc1cc(F)cc(-c3cccnc3)c1)CC2 | inconclusive [cytotoxic, partial curve] | –
48 | Cc1cc(C)cc(OCC(=O)NNC(=S)NC(=O)C2CC2)c1 | inconclusive [cytotoxic, partial curve] | –

Row | Compound | Potency | activity, negative = toxicity
49 | O=C1C2C3C=CC(C3=C(c3ccccc3)c3ccccc3)C2C(=O)N1Cc1ccccc1 (stereo unspecified) | inconclusive [cytotoxic, partial curve] | –
50 | COc1ccc(-c2csc(NC3OC(=O)c4c3ccc(OC)c4OC)n2)cc1OC (stereo unspecified) | active: 2.59 µM | –
51 | C[C@H](CO)N1C[C@H](C)[C@@H](CN(C)C(=O)NC2CCCCC2)Oc2c(NC(=O)Cc3ccccc3)cccc2C1=O | – | inactive: -0.786%
52 | O=C(CN(C(=O)CCC(=O)Nc1nccs1)c1cccc(F)c1)NCc1ccccc1 | inconclusive [cytotoxic, single point] | –
53 | Cc1ccccc1C(=O)N1CCN(c2ccc(NC(=S)NC(=O)c3ccco3)cc2)CC1 | inconclusive [cytotoxic, single point] | –
54 | Cc1ccc(NC(=O)c2cc(=O)c3ccccc3o2)cc1S(=O)(=O)N1CCCCC1 | – | inconclusive: -35.5% [cytotoxic]
55 | CN(C)CCNCCCNc1c2ccccc2nc2cccc([N+](=O)[O-])c12 | inconclusive [cytotoxic, full curve, poor fit] | –
56 | CCC(Sc1nc(C)cc(C)n1)C(=O)NC1=NN=C(c2ccc(C)cc2)CS1 (stereo unspecified) | inconclusive [cytotoxic, single point] | –
57 | Cc1ncc(CN2CCCC(C(=O)Nc3ccc(-c4cccc(F)c4)cc3)C2)n1C (stereo unspecified) | inconclusive [cytotoxic, single point] | –
58 | COc1cccc(CNC(=O)c2nnn(CC(=O)Nc3ccc(Br)cc3)c2N)c1 | inconclusive [cytotoxic, single point] | –
59 | O=C(Nc1ccc(N2CCOCC2)cc1)c1nc2ccccc2s1 | – | inactive: 5%
60 | Cc1noc(C)c1S(=O)(=O)Nc1ccc2c(c1)C(=O)N([C@@H](C)CO)C[C@H](C)[C@@H](CN(C)Cc1ccc(C(F)(F)F)cc1)OCCCC[C@H](C)O2 | inconclusive [cytotoxic, single point] | –
61 | O=C(CSc1n[nH]c(-c2ccccc2O)n1)N1CCCc2ccccc21 | active: 16.4 µM | –
62 | O=C(CNC(=O)c1ccco1)Nc1ccncc1 | – | inactive: 3.33%
63 | Cc1ccc(-c2onc(C)c2C)cc1S(=O)(=O)N1CCOc2ccccc21 | inconclusive [cytotoxic, single point] | –
64 | CC1CC(C)CN(CCOCCSc2ccc(Cl)cc2)C1 (stereo unspecified) | inconclusive [cytotoxic, single point] | –
65 | COc1ccc(COc2cc(-c3cccc(OC)c3)nc3ccc(NC(=O)c4ccc(OC)cc4)cc23)cc1 | active: 4.61 µM | –
66 | CC(=O)Nc1ccc(S(=O)(=O)NC2(C(F)(F)F)C(=O)Nc3c2c(=O)[nH]c(=O)n3Cc2cccnc2)cc1 (stereo unspecified) | inconclusive [rising, single point] | –
67 | COc1ccc(NC(=O)c2cccc(N3C(=O)C4C5C=CC(C6CC56)C4C3=O)c2)c(OC)c1 (stereo unspecified) | – | inactive: -2.11%
68 | COc1ccc(Nc2ccnc(Nc3ccc(OC)cc3)n2)cc1 | active: 20.6 µM | –
69 | CCC(=O)OC1(C)C(=O)C2=COC(c3ccc(OC)cc3)=CC2=C(Br)C1=O (stereo unspecified) | – | inactive: 6.4%
70 | CC(=O)Oc1ccc2c(C)cc(=O)oc2c1 | inconclusive [rising, partial curve, poor fit] | –
71 | COc1ccccc1Cc1c(C2CCCCC2)nc2ccc(C)cn12 | inconclusive [cytotoxic, single point] | –
